{"source": "PubChem BioAssay AID1240", "about": "(Sanford-Burnham Center for Chemical Genomics, 2008)", "note": "The whole screen tested about 50,000 compounds, of which about 800 (1.6%) showed an effect of 50% or more. Some of the results follow.", "data": [{"biological_target": "Bcl-2-like protein 10 (Homo sapiens) (UniProt Q9HD36)", "sequence (Q9HD36 whole entry, looked up)": "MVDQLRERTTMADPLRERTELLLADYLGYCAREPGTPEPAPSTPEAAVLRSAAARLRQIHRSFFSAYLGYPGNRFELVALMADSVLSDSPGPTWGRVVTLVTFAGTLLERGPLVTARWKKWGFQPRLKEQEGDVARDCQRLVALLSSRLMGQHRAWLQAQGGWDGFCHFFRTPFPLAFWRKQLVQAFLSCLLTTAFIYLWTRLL", "assay": "Phenotype converters, Bcl-B/TR3 peptide binding displacement, primary biochemical FP (AID 1240);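 also: 0% = Bcl-B with tracer peptide and DMSO and 100% = tracer peptide lacking Bcl-B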", "settings": "GST-Bcl-B / FITC-TR3 peptide fluorescence polarization; stronger effect = higher value; compound at 3.75 mg/L", "units": {"displacement": "%"}, "values": [{"smiles": "NC1=NC(=O)/C(=C/c2ccc(OC(=O)c3cccc([N+](=O)[O-])c3)cc2)S1", "displacement": 2.5}, {"smiles": "O=S(=O)(Nc1ccc(OCc2ccccc2)cc1)c1ccccc1", "displacement": 18.6}, {"smiles": "CC(=O)N(Cc1ccc2c(c1)OCO2)C1CC(=O)N(c2ccc(Br)cc2)C1=O", "note": "(stereo not drawn)", "displacement": 72.3}, {"smiles": "O=C(Nc1ccccc1C(=O)O)c1cccs1", "displacement": 1.4}, {"smiles": "COc1ccc(C)cc1NC(=O)C(=O)NCc1ccccn1", "displacement": -12.6}, {"smiles": "CCN(CC)CCCNS(=O)(=O)c1ccccc1[N+](=O)[O-]", "displacement": 11.6}, {"smiles": "Cc1ccnc(NC(=O)COc2ccc(Cl)c(C)c2)c1", "displacement": 1.5}, {"smiles": "COc1cccc(NC(=O)COc2cccc(C)c2C)c1", "displacement": -5.1}, {"smiles": "CCOc1cc(C(=O)N2CCN(c3ccccc3OC)CC2)cc(OCC)c1OCC", "displacement": -13.2}, {"smiles": "O=C(N/N=C/c1cccs1)C(O)c1ccccc1", "note": "(stereo not drawn)", "displacement": 4}, {"smiles": "CCc1ccccc1NC(=O)C(=O)NCCc1ccc(OC)c(OC)c1", "displacement": -5.5}, {"smiles": "COC1C(C)=CC(=O)N1Cc1ccccc1", "note": "(stereo not drawn)", "displacement": 4.4}, {"smiles": "COc1ccccc1/C=N/n1c(-c2ccccc2C)nc2ccccc2c1=O", "displacement": 10.6}, {"smiles": "O=C(O)c1ccccc1C(=O)Nc1ccc(Cl)cn1", "displacement": -5.3}, {"smiles": "COc1ccccc1C1/C(=C(\\O)c2ccc([N+](=O)[O-])cc2)C(=O)C(=O)N1CCCCCC(=O)O", "note": "(stereo not drawn)", "displacement": 6.3}, {"smiles": "Cc1cc(C)nc(NS(=O)(=O)c2ccc(NC(=S)NC(=O)c3ccc(Br)cc3)cc2)n1", "displacement": 2.6}, {"smiles": "COC(=O)C1=CNC=C(C(=O)OC)C1c1ccsc1", "displacement": 10}, {"smiles": "Cc1ccc(N2C(=O)CSC2c2ccc(Br)cc2)cc1", "note": "(stereo not drawn)", "displacement": 8}, {"smiles": "COc1cc(/C=N\\n2c(C)nnc2C)ccc1OCc1ccccc1", "displacement": 1.6}, {"smiles": "O=C(Nc1ccccc1)N1CCOCC1", "displacement": -1.1}, {"smiles": "CC1=CC(C)(C)Nc2ccc(OC(=O)c3ccccc3)cc21", "displacement": 2.5}, {"smiles": "COc1ccc(-c2nc(-c3cc(OC)c(OC)cc3OC)[nH]c2-c2ccc(OC)cc2)cc1", "displacement": 0.4}, {"smiles": "N/C(=N\\OC(=O)c1ccco1)c1ccc(Cl)cc1", "displacement": -5.2}, {"smiles": "Cc1ccc(NC(=O)c2ccc(S(=O)(=O)N3CCCCC3)cc2)c(C(=O)c2ccccc2)c1", "displacement": 4.3}, {"smiles": "Cn1c(O)c(N=NC(=S)NC2CCS(=O)(=O)C2)c2ccccc21", "note": "(stereo not drawn)", "displacement": 21.5}, {"smiles": "Cc1ccc(C(C)(C)C)c(OCC(=O)O)c1", "displacement": -1.3}, {"smiles": "COC(=O)c1ccccc1NC(=O)c1cccc(F)c1", "displacement": -3}, {"smiles": "Cc1ccccc1NC(=O)c1c(NC(=O)C(Cl)(Cl)Cl)sc2c1CCC2", "displacement": 14.9}, {"smiles": "Cc1ccc(Cn2c(NC(=O)c3ccc(Cl)cc3)nc3ccccc32)cc1", "displacement": 7.8}, {"smiles": "Cc1c(Cc2ccccc2)sc(NC(=O)c2ccccc2Br)c1C(N)=O", "displacement": -12.7}, {"smiles": "COc1cccc(NC(=O)c2c(Cl)cccc2Cl)c1", "displacement": 8.7}, {"smiles": "CN1CCN(c2nc3ccccn3c(=O)c2/C=C2\\SC(=S)N(CC3CCCO3)C2=O)CC1", "note": "(stereo not drawn)", "displacement": -51.2}, {"smiles": "COc1ccc(N(CC(=O)Nc2ccc3ccccc3c2)S(=O)(=O)c2ccccc2)cc1Cl", "displacement": 13.1}, {"smiles": "COc1ccc(COC(=O)C2=C(C)NC(=O)CC2c2c(F)cccc2Cl)cc1", "note": "(stereo not drawn)", "displacement": 5.9}, {"smiles": "O=S(=O)(Nc1ccccc1CO)c1ccc2ccccc2c1", "displacement": 4.9}, {"smiles": "COc1cc(/C=C2\\C(=O)NN(c3ccccc3)C2=O)ccc1OCC(=O)O", "displacement": 13.8}, {"smiles": "CC(C)CC(=O)Nc1ccccc1C(=O)Nc1ccc(C(=O)O)cc1", "displacement": 11.9}, {"smiles": "CCOP(=O)(OCC)C(c1ccco1)N(C)C(=O)C1CC1", "note": "(stereo not drawn)", "displacement": 2.3}, {"smiles": "COc1ccc(Br)cc1C(=O)Nc1cccc2nsnc12", "displacement": 1.2}, {"smiles": "COc1cc(C(=O)O/N=C(/c2ccncc2)c2ccc([N+](=O)[O-])cc2)cc(OC)c1OC", "displacement": -11.9}, {"smiles": "CC(C)(C)c1ccc(OCC(=O)Nc2ccc(F)cc2)cc1", "displacement": 0}, {"smiles": "O=C(Nc1nc(-c2cc(Cl)ccc2Cl)cs1)C(Cl)Cl", "displacement": 12.8}, {"smiles": "Cc1cc(C)nc(/N=C(/N)Nc2ccc3ccccc3c2)n1", "displacement": -10.7}, {"smiles": "CCOC(=O)c1c(-c2ccc(Cl)cc2)csc1NC(=O)C1CC=CCC1C(=O)O", "note": "(stereo not drawn)", "displacement": 0.7}, {"smiles": "COC(=O)c1ccc(NC(NC(=O)c2ccc(OC)c(OC)c2)C(Cl)(Cl)Cl)cc1", "note": "(stereo not drawn)", "displacement": -2}, {"smiles": "CCOC(=O)CC1(c2ccccc2)SC(NC(C)=O)=NN1C(C)=O", "note": "(stereo not drawn)", "displacement": -3.4}, {"smiles": "COc1ccc(Oc2coc3cc(OC(=O)c4ccccc4Cl)ccc3c2=O)cc1", "displacement": 7.4}, {"smiles": "COc1ccc(C2/C(=C(/O)c3ccccc3)C(=O)C(=O)N2Cc2ccccc2)cc1", "note": "(stereo not drawn)", "displacement": -16.2}, {"smiles": "CC1(C)C2=C([N+](=O)[O-])CN(c3ccccc3)CN2C(C)(C)N1[O]", "displacement": 3.9}, {"smiles": "O=C1Nc2ccc(Br)c3cccc1c23", "displacement": 15.9}, {"smiles": "N/C(=N\\OC(=O)c1ccc(Br)cc1)c1ccccc1", "displacement": -5.4}, {"smiles": "Cc1cccc(C=Nc2cc(Cl)ccc2O)c1O", "displacement": 6.8}, {"smiles": "Cc1nccn1S(=O)(=O)c1ccc(Cl)c([N+](=O)[O-])c1", "displacement": 2.1}, {"smiles": "CC(=O)C1=C(O)C(=O)N(CCN2CCNCC2)C1c1ccc(F)cc1", "note": "(stereo not drawn)", "displacement": -26.2}, {"smiles": "Cc1ccc(C(=O)N2C(C)CCCC2C)cc1[N+](=O)[O-]", "note": "(stereo not drawn)", "displacement": -4}, {"smiles": "O=C(NCc1ccccn1)c1cccc2ccccc12", "displacement": -1.2}, {"smiles": "COc1ccc(CC(=O)NN2C(=O)c3ccccc3C2=O)cc1", "displacement": 12.4}, {"smiles": "COC(=O)C(NC(=O)c1ccccc1)c1ccccc1", "note": "(stereo not drawn)", "displacement": 3.9}, {"smiles": "COc1ccc(/C=C2\\SC(=S)N(CCCC(=O)NC34CC5CC(CC(C5)C3)C4)C2=O)cc1", "displacement": 4.2}, {"smiles": "COc1ccc(NC(=O)c2cc(Cl)ccc2OC)c([N+](=O)[O-])c1", "displacement": -3.1}, {"smiles": "Cc1nc(=O)c(-c2ccccc2)c(C)n1CCO", "displacement": -5.9}, {"smiles": "Brc1ccc(/C=N/Nc2cc(N3CCOCC3)nc(N3CCOCC3)n2)cc1", "displacement": 4.5}, {"smiles": "CCC(C(=O)Nc1ccc2c(c1)OCCO2)c1ccccc1", "note": "(stereo not drawn)", "displacement": 2.3}, {"smiles": "Cn1c(/N=C(\\N)c2ccc([N+](=O)[O-])cc2)nc2ccccc21", "displacement": -19.4}, {"smiles": "Cc1ccc(C)c(OCCCCN2CCCCC2)c1C", "displacement": 12.5}, {"smiles": "COc1ccc(C(=O)NN=C2CCN(Cc3ccccc3)CC2)cc1OC", "displacement": 7.2}, {"smiles": "O=C(N/N=C/c1ccc(/C=N/NC(=O)c2ccc(Br)cc2)cc1)c1ccc(Br)cc1", "displacement": -13.5}, {"smiles": "Cc1cccc(C)c1NC(=O)CSc1nnc(NC(=O)CN2CCOCC2)s1", "displacement": -1}, {"smiles": "COc1cc(NC(C)=O)c(OC)cc1N=NC1=C(O)CC(C)(C)CC1=O", "displacement": -2.3}, {"smiles": "CCOC(=O)/C(C(C)=O)=C(\\C=C\\N(C)C)N(C)C", "displacement": -5}, {"smiles": "N#Cc1cc2[nH]c3ccccc3c2n(-c2ccc([N+](=O)[O-])cc2)c1=O", "displacement": -12.2}, {"smiles": "O=C(CCCC(=O)OCC(F)(F)C(F)F)Nc1cccc(F)c1", "displacement": -0.4}, {"smiles": "Nc1nonc1-n1nnc(C(=O)N/N=C/c2ccc(O)cc2)c1-c1ccccc1", "displacement": -12.2}, {"smiles": "O=C(COc1ccc(Cl)cc1Br)N/N=C/c1cc(Cl)cc([N+](=O)[O-])c1O", "displacement": 35.7}, {"smiles": "O=C(CC(C(=O)O)N1CCOCC1)c1ccccc1", "note": "(stereo not drawn)", "displacement": -6.5}, {"smiles": "CCOc1cc(C=C2C(=O)c3ccccc3C2=O)ccc1OCc1ccc(Cl)cc1Cl", "displacement": 2.3}, {"smiles": "O=C(CCCN1C(=O)c2cccc3cccc(c23)C1=O)NCc1cccnc1", "displacement": 6.9}, {"smiles": "NNC(=O)COc1cccc2ccccc12", "displacement": 3.2}, {"smiles": "O=C(c1ccc(N2CCN(C(=O)c3c(F)cccc3F)CC2)cc1)c1cccc(F)c1", "displacement": -6.6}, {"smiles": "OCC(O)COC(c1ccccc1)(c1ccccc1)c1ccccc1", "note": "(stereo not drawn)", "displacement": 7.5}, {"smiles": "C#Cc1cccc(NC(=O)c2cc(C(=O)Nc3cccc(C#C)c3)cc(N3C(=O)c4ccccc4C3=O)c2)c1", "displacement": -1.8}, {"smiles": "CC1(C)OC2OC(COC(=O)c3ccccc3Cl)C3OC(C)(C)OC3C2O1", "note": "(stereo not drawn)", "displacement": 9.1}, {"smiles": "CCc1nnc(NS(=O)(=O)c2ccc(N/C=C/C(=O)c3ccc(OC)cc3OC)cc2)s1", "displacement": 12}, {"smiles": "COc1cc(C=C2C(=O)NC(=O)NC2=O)cc(Br)c1OCc1ccccc1", "displacement": 5.1}, {"smiles": "COc1cc(/C=C2/SC(=S)N(CC(=O)Nc3ccccn3)C2=O)cc(OC)c1OC", "displacement": 15.6}, {"smiles": "O=C(/C=C/c1ccc(F)cc1)Nc1cccc2ncccc12", "displacement": 20.5}, {"smiles": "COc1cc(C2Nc3ccccc3C(=O)N2Cc2ccccc2)ccc1O", "note": "(stereo not drawn)", "displacement": -0.6}, {"smiles": "O=C(Nc1ccc2ccccc2c1)c1cccc(NC(=O)c2cccs2)c1", "displacement": 4.4}, {"smiles": "Cc1ccc(NC(=O)CC2CS(=O)(=O)CC2CC(=O)Nc2ccc(C)c(C)c2)cc1C", "note": "(stereo not drawn)", "displacement": -13}, {"smiles": "COc1ccc(-n2nc3cc(C)c(NC(=O)c4cc5ccccc5o4)cc3n2)cc1", "displacement": 2.4}, {"smiles": "COc1ccc(C2CC(=O)C3=C(C2)Nc2ccccc2NC3c2ccc(OCc3ccccc3)cc2)cc1", "note": "(stereo not drawn)", "displacement": -4.9}, {"smiles": "O=C(CSc1nnnn1-c1ccccc1)Nc1nccs1", "displacement": 8.2}, {"smiles": "CCOC(=O)c1c(-c2ccc(F)cc2)csc1NC(=O)C1CC=CCC1C(=O)O", "note": "(stereo not drawn)", "displacement": -2.7}, {"smiles": "COc1ccc(CCNC(=O)/C=C/c2ccc(Cl)cc2Cl)cc1OC", "displacement": 5.2}, {"smiles": "COc1ccc(C2CC(C(F)(F)F)n3ncc(C(=O)Nc4c(C)n(C)n(-c5ccccc5)c4=O)c3N2)cc1", "note": "(stereo not drawn)", "displacement": -4.1}, {"smiles": "CCCCNC(=O)/C(=C/c1ccc(Cl)cc1)NC(=O)c1ccc(OC)cc1", "displacement": 6.4}, {"smiles": "COCCOC(=O)c1c(C)oc2ccc(NS(=O)(=O)c3cc(Cl)ccc3Cl)cc12", "displacement": 10}, {"smiles": "Cc1ccc(C(=O)Nc2ccccc2C(=O)N2CCC(Cc3ccccc3)CC2)cc1", "displacement": -0.9}, {"smiles": "O=C(Nc1cc(C(F)(F)F)ccc1Cl)c1ccccc1I", "displacement": 6.3}, {"smiles": "O=C(Nc1nnc(COc2ccc(F)cc2)s1)c1ccc(F)cc1", "displacement": -14.8}, {"smiles": "COc1ccc(NS(=O)(=O)c2ccccc2)cc1OC", "displacement": -9.2}, {"smiles": "O=C(O)CCCCCN1C(=O)C(O)=C(C(=O)/C=C/c2ccccc2)C1c1cccc([N+](=O)[O-])c1", "note": "(stereo not drawn)", "displacement": 96.1}, {"smiles": "O=C1N/C(=N/N=C/c2ccc(O)cc2)SC1Cc1ccc(Cl)cc1", "note": "(stereo not drawn)", "displacement": -7.7}, {"smiles": "CC1=C(C(=O)Nc2ccc(Br)cc2)C(c2ccccc2Br)NC(=S)N1", "note": "(stereo not drawn)", "displacement": -7}, {"smiles": "Cc1ccc(S(=O)(=O)CCC(=O)c2ccc(O)cc2O)cc1", "displacement": 3.1}, {"smiles": "COC(=O)C1=C(C(=O)OC)SC(=C2C(=S)C(C)(C)N(C(=O)c3cccc(F)c3)c3c(C)cccc32)S1", "displacement": -6.7}, {"smiles": "CCc1ccc2c(c1)C(O)(CC(=O)c1ccc(Cl)cc1)C(=O)N2", "note": "(stereo not drawn)", "displacement": -9.9}, {"smiles": "COc1ccc(CC(=O)Nc2sc3c(c2C(=O)Nc2ccccc2Cl)CCCC3)cc1", "displacement": -9.7}]}]}
